Patent US11000038B2, “Pyridone compounds and agricultural and horticultural fungicides containing the same as active ingredients” (priority 2017, dated 2021)

Key:
[1] = system: cabbage Alternaria sooty spot fungi (Alternaia brassicicola); assay: Test Example C: cabbage Alternaria sooty spot, spray treatment of cabbage plants; format: in vivo; details: cabbage Alternaria sooty spot, spray treatment
Excerpt: [Test Example C] Cabbage Alternaria Sooty Spot
Test plants (cabbage variety: Shikidori) were cultivated until the cotyledons extended after the sowing of seeds.
<Control Value> Control value=100{1−(n/3)}

[2] = system: grape downy mildew fungus (Plasmopara viticola); assay: Test Example G: grape downy mildew, spray treatment of grape plants; details: grape downy mildew, 250 ppm spray, 7 to 10 days after inoculation
[3] = system: gray mold fungi (Botrytis cinerea); assay: Test Example B: tomato gray mold, spray treatment of tomato plants; details: tomato gray mold, spray treatment
[4] = system: wheat brown rust fungi (Puccinia recondita); assay: Test Example E: wheat brown rust, spray treatment of wheat plants; format: in vivo; details: wheat brown rust, spray treatment
[5] = system: barley powdery mildew fungi (Blumeria graminis f. sp. hordei); assay: Test Example D: barley powdery mildew, spray treatment of barley plants; details: barley powdery mildew, spray treatment

| SMILES | Test C control value [1] | Test G control value [2] | Test B control value [3] | Test E control value [4] | Test D control value [5] |
| --- | --- | --- | --- | --- | --- |
| Cc1cn(-c2ccccc2)c(-c2ccccc2)c(C)c1=O [Compound 537] | H (H shows the control value of more than 50%) | L (L shows the control value of 50% or less) | H (H shows the control value of more than 50%) | H (H shows the control value of more than 50%) | L (L shows the control value of 50% or less) |
| CCc1c(-c2ccccc2)n(-c2ccccc2Cl)cc(C)c1=O [Compound 538] | H (H shows the control value of more than 50%) | L (L shows the control value of 50% or less) | H (H shows the control value of more than 50%) | H (H shows the control value of more than 50%) | H (H shows the control value of more than 50%) |
| CCc1c(-c2c(F)cccc2F)n(-c2cc(C)ccc2C)cc(C)c1=O [Compound 540] | H (H shows the control value of more than 50%) | L (L shows the control value of 50% or less) | H (H shows the control value of more than 50%) | L (L shows the control value of 50% or less) | L (L shows the control value of 50% or less) |
| CCc1c(-c2c(F)cccc2F)n(-c2cc(F)ccc2C)cc(Br)c1=O [Compound 541] | H (H shows the control value of more than 50%) | L (L shows the control value of 50% or less) | L (L shows the control value of 50% or less) | L (L shows the control value of 50% or less) | L (L shows the control value of 50% or less) |
| CCc1c(-c2c(F)cccc2F)n(-c2cc(F)ccc2C)cc(C)c1=O [Compound 542] | H (H shows the control value of more than 50%) | L (L shows the control value of 50% or less) | H (H shows the control value of more than 50%) | L (L shows the control value of 50% or less) | L (L shows the control value of 50% or less) |
| CCc1c(-c2c(F)cc(F)cc2F)n(-c2cccc(Cl)c2C)cc(C)c1=O [Compound 547] | H (H shows the control value of more than 50%) | H (H shows the control value of more than 50%) | H (H shows the control value of more than 50%) | H (H shows the control value of more than 50%) | H (H shows the control value of more than 50%) |
| CCc1c(-c2c(F)cccc2F)n(-c2cccc(F)c2C)cc(Br)c1=O [Compound 550] | H (H shows the control value of more than 50%) | L (L shows the control value of 50% or less) | H (H shows the control value of more than 50%) | H (H shows the control value of more than 50%) | L (L shows the control value of 50% or less) |
| CCc1c(-c2c(F)cccc2F)n(-c2cccc(OC)c2C)cc(C)c1=O [Compound 551] | H (H shows the control value of more than 50%) | L (L shows the control value of 50% or less) | H (H shows the control value of more than 50%) | H (H shows the control value of more than 50%) | H (H shows the control value of more than 50%) |
| CCc1c(-c2c(F)cccc2F)n(-c2cccc(F)c2C)cc(C)c1=O [Compound 552] | H (H shows the control value of more than 50%) | H (H shows the control value of more than 50%) | H (H shows the control value of more than 50%) | H (H shows the control value of more than 50%) | H (H shows the control value of more than 50%) |
| CCc1c(-c2ccccc2)n(-c2cc(Cl)ccc2C)cc(Br)c1=O [Compound 553] | L (L shows the control value of 50% or less) | L (L shows the control value of 50% or less) | H (H shows the control value of more than 50%) | L (L shows the control value of 50% or less) | L (L shows the control value of 50% or less) |
| CCc1c(-c2c(F)cccc2F)n(-c2ccccc2)cc(C)c1=O [Compound 555] | H (H shows the control value of more than 50%) | L (L shows the control value of 50% or less) | H (H shows the control value of more than 50%) | H (H shows the control value of more than 50%) | H (H shows the control value of more than 50%) |
| CCc1c(-c2c(F)cc(F)cc2F)n(-c2cc(Cl)ccc2C)cc(Br)c1=O [Compound 556] | H (H shows the control value of more than 50%) | L (L shows the control value of 50% or less) | H (H shows the control value of more than 50%) | H (H shows the control value of more than 50%) | H (H shows the control value of more than 50%) |
| CCc1c(-c2ccccc2)n(-c2ccccc2)cc(Br)c1=O [Compound 557] | H (H shows the control value of more than 50%) | L (L shows the control value of 50% or less) | H (H shows the control value of more than 50%) | H (H shows the control value of more than 50%) | L (L shows the control value of 50% or less) |
| CCc1c(-c2ccccc2)n(-c2ccccc2)cc(C)c1=O [Compound 559] | H (H shows the control value of more than 50%) | H (H shows the control value of more than 50%) | L (L shows the control value of 50% or less) | L (L shows the control value of 50% or less) | H (H shows the control value of more than 50%) |
| CCc1c(-c2c(F)cccc2F)n(-c2cc(OC)ccc2C)cc(C)c1=O [Compound 560] | H (H shows the control value of more than 50%) | L (L shows the control value of 50% or less) | H (H shows the control value of more than 50%) | H (H shows the control value of more than 50%) | H (H shows the control value of more than 50%) |
| CCc1c(-c2c(F)cccc2F)n(-c2cc(Br)ccc2C)cc(Br)c1=O [Compound 561] | H (H shows the control value of more than 50%) | H (H shows the control value of more than 50%) | H (H shows the control value of more than 50%) | H (H shows the control value of more than 50%) | L (L shows the control value of 50% or less) |
| CCc1c(-c2ccccc2)n(-c2cccc(OC)c2C)cc(Br)c1=O [Compound 562] | H (H shows the control value of more than 50%) | L (L shows the control value of 50% or less) | H (H shows the control value of more than 50%) | H (H shows the control value of more than 50%) | L (L shows the control value of 50% or less) |
| CCc1c(-c2ccccc2)n(-c2cccc(OC)c2C)cc(C)c1=O [Compound 563] | H (H shows the control value of more than 50%) | L (L shows the control value of 50% or less) | H (H shows the control value of more than 50%) | H (H shows the control value of more than 50%) | H (H shows the control value of more than 50%) |
| CCc1c(-c2ccccc2)n(-c2cc(F)ccc2C)cc(Br)c1=O [Compound 564] | H (H shows the control value of more than 50%) | L (L shows the control value of 50% or less) | H (H shows the control value of more than 50%) | H (H shows the control value of more than 50%) | L (L shows the control value of 50% or less) |
| CCc1c(-c2ccccc2)n(-c2ccccc2C)cc(C)c1=O [Compound 566] | H (H shows the control value of more than 50%) | L (L shows the control value of 50% or less) | H (H shows the control value of more than 50%) | H (H shows the control value of more than 50%) | H (H shows the control value of more than 50%) |
| O=c1c(Br)cn(-c2ccccc2)c(-c2ccc(F)cc2Cl)c1Cl [Compound 567] | H (H shows the control value of more than 50%) | L (L shows the control value of 50% or less) | H (H shows the control value of more than 50%) | H (H shows the control value of more than 50%) | L (L shows the control value of 50% or less) |
| CCc1c(-c2ccccc2)n(-c2cc(Cl)ccc2C)cc(C)c1=O [Compound 568] | H (H shows the control value of more than 50%) | L (L shows the control value of 50% or less) | H (H shows the control value of more than 50%) | H (H shows the control value of more than 50%) | H (H shows the control value of more than 50%) |
